In the BET-seq Pho4 binding data (Le et al. 2018):
The list shows a part of the results. The energies were worked out here from pooled read counts, against the library average; single values are noisy.

target: T1, Pho4 (S. cerevisiae) (UniProt P07270); experiment: relative binding free energy (BET-seq); higher = weaker binding; conditions: reference: library average
T1 sequence: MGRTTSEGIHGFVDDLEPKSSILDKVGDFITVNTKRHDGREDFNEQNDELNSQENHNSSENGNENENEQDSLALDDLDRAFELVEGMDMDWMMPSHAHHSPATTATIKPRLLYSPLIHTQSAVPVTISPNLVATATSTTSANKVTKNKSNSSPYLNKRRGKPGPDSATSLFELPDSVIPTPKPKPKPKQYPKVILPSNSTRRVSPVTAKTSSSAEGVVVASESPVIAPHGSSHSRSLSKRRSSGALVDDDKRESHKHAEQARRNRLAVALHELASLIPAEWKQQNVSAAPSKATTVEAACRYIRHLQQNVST

Sequence	relative binding free energy
TCCGGCACGTGGTTGT	0.02 kcal/mol
CTGAACACGTGTGTGG	-0.04 kcal/mol
TTGGCCACGTGGAGTT	-0.23 kcal/mol
TGTAACACGTGAATTT	0.17 kcal/mol
GTATTCACGTGGTATT	0.2 kcal/mol
GGCAACACGTGAGTGG	0.23 kcal/mol
AGTCTCACGTGGCGTG	0.11 kcal/mol
AGAGGCACGTGTGGAG	-0.03 kcal/mol
TTGGGCACGTGTAGCT	0.06 kcal/mol
GAGTACACGTGTGTCT	0.18 kcal/mol
AATGGCACGTGATGGG	0.01 kcal/mol
GCTTTCACGTGGTCTG	0.35 kcal/mol
TTATCCACGTGTGCTG	0.06 kcal/mol
ATCGTCACGTGTGGAA	0.03 kcal/mol
AATTTCACGTGTGAAG	0.38 kcal/mol
TTATACACGTGAGCTG	0.28 kcal/mol
TGATACACGTGAGTAG	0.14 kcal/mol
GGGCACACGTGGGGGG	-0.01 kcal/mol
GAGGGCACGTGATGCG	-0.05 kcal/mol
TGTGTCACGTGGGCGT	-0.16 kcal/mol
GTGTGCACGTGATGCT	0.17 kcal/mol
TGTAACACGTGTAGGT	0.13 kcal/mol
GAAAGCACGTGCGGGT	-0.12 kcal/mol

Sequence	relative binding free energy
GGCGTCACGTGGGATG	0.03 kcal/mol
CTGTGCACGTGTAATG	-0.03 kcal/mol
GGTTTCACGTGCCTTT	0.24 kcal/mol
TCTAGCACGTGTGTGT	-0.14 kcal/mol
CGGGTCACGTGTCAGT	0.15 kcal/mol
AATATCACGTGGCGGG	0.1 kcal/mol
CTAGTCACGTGTTTAA	0.25 kcal/mol
TGGTCCACGTGGCATG	-0.05 kcal/mol
GAGTTCACGTGTGGGT	0.38 kcal/mol
TACTGCACGTGTGTGG	0.11 kcal/mol
GGTTTCACGTGAATGA	0.49 kcal/mol
TGTTTCACGTGTCTCG	0.28 kcal/mol
AGGGGCACGTGACGGA	-0.03 kcal/mol
CTGTCCACGTGTTGTA	0.05 kcal/mol
GGAAGCACGTGGGATT	-0.07 kcal/mol
GATGACACGTGTTATG	0.05 kcal/mol
GACGTCACGTGGGTAG	0.05 kcal/mol
TCGGGCACGTGTACGT	-0.07 kcal/mol
TGTATCACGTGGAGGA	0 kcal/mol
CGTGCCACGTGGTGAG	-0.23 kcal/mol
GCTTTCACGTGGTGTG	0.22 kcal/mol
GGTTCCACGTGATTTG	0.32 kcal/mol
TTGATCACGTGATCTT	0.24 kcal/mol

Sequence	relative binding free energy
TAGGGCACGTGCGGGG	-0.13 kcal/mol
AGATTCACGTGGTCAG	0.24 kcal/mol
TGGTCCACGTGGAATG	0.08 kcal/mol
GTTGGCACGTGGCCGA	-0.06 kcal/mol
CGTAGCACGTGGGATA	-0.13 kcal/mol
GGGGACACGTGCGCGT	-0.2 kcal/mol
CTTTCCACGTGAGGGG	0.3 kcal/mol
TAAGACACGTGATTGG	0.19 kcal/mol
GAGGGCACGTGAGGGC	0.13 kcal/mol
GGTGACACGTGGCAGT	0 kcal/mol
GGTTTCACGTGTCCGG	0.39 kcal/mol
ATTTACACGTGTGAGC	0.24 kcal/mol
TATGGCACGTGAGCGA	0.12 kcal/mol
TGTGTCACGTGCTATA	0.03 kcal/mol
CTTTTCACGTGTTCAG	0.2 kcal/mol
TGGAGCACGTGATGAA	0.08 kcal/mol
TTTGCCACGTGGTTGG	-0.05 kcal/mol
TAGAACACGTGGGTGC	-0.13 kcal/mol
GGTGCCACGTGTGGTC	-0.04 kcal/mol
ATTATCACGTGTTTAG	0.04 kcal/mol
ATAATCACGTGTGTTC	0.1 kcal/mol
TTTAGCACGTGTACAG	0.02 kcal/mol
AAGGTCACGTGGGTGT	-0.06 kcal/mol

Sequence	relative binding free energy
GTAGCCACGTGGTGGA	-0.11 kcal/mol
TGGGGCACGTGAGACA	0.06 kcal/mol
CGGTGCACGTGGAAGG	0.01 kcal/mol
CAGTGCACGTGATCGG	0.17 kcal/mol
GGTCGCACGTGGTGAG	-0.06 kcal/mol
AGGGGCACGTGTGGTG	-0.02 kcal/mol
CAGGTCACGTGGGTCT	0 kcal/mol
TTTTGCACGTGGGTGG	-0.05 kcal/mol
TTAGTCACGTGGTTGG	0.11 kcal/mol
AGAGACACGTGGTTTG	-0.06 kcal/mol
ATTAACACGTGTAGAG	-0.04 kcal/mol
GGTCTCACGTGGTATT	0.19 kcal/mol
GTCGGCACGTGAGAGT	0.01 kcal/mol
GGTTTCACGTGCATTT	0.42 kcal/mol
TTTTCCACGTGCGTGT	0.03 kcal/mol
GTGGTCACGTGCTAGT	0.07 kcal/mol
GGGTGCACGTGGTGTT	-0.05 kcal/mol
GGAATCACGTGAGGTT	0.45 kcal/mol
TTCGGCACGTGTGGTC	0.01 kcal/mol
GGCACCACGTGTTGGG	0.07 kcal/mol
AGGTGCACGTGGGTAG	-0.14 kcal/mol
GCTCGCACGTGGAGGG	-0.08 kcal/mol
GAGTCCACGTGTAAGG	0.2 kcal/mol

Sequence	relative binding free energy
GTGGTCACGTGGACGA	0.12 kcal/mol
ATTGGCACGTGAATGG	0.05 kcal/mol
GTTTGCACGTGGTATG	0.06 kcal/mol
TTGGGCACGTGTTAAA	0.02 kcal/mol
TATATCACGTGGTCGA	0.11 kcal/mol
AGCTACACGTGTGGGG	0.14 kcal/mol
TTAGGCACGTGGAATC	0.01 kcal/mol
GGTTTCACGTGCTGAG	0.26 kcal/mol
GTGGTCACGTGTGCTG	0.12 kcal/mol
AATAACACGTGGATTG	0.1 kcal/mol
TTTGTCACGTGGGTGG	0.01 kcal/mol
CGTTTCACGTGGTTGA	0.28 kcal/mol
GCGTGCACGTGATGGA	0.19 kcal/mol
TTGAGCACGTGTTACG	-0.12 kcal/mol
TTGAGCACGTGGCATA	-0.2 kcal/mol
GTCTTCACGTGATAGG	0.52 kcal/mol
CTGTTCACGTGGAATT	0.35 kcal/mol
TTTGGCACGTGTGCCG	-0.04 kcal/mol
CGTTGCACGTGTGGTT	0.07 kcal/mol
AATTACACGTGGGTGG	0.04 kcal/mol
AGGGCCACGTGTAAAT	0.15 kcal/mol
TAGTCCACGTGGTAAG	-0.03 kcal/mol
AGCTTCACGTGGTGGT	0.18 kcal/mol
